Several values for one entry are separate records, joined by “and”; a condition that tells them apart may be missing. Equal entries are not always repeated. In all, about 420,000 compounds went through this assay and about 50,000 (12%) were called active. This list was built around the results that the source calls inconclusive (neither active nor inactive); the mix of calls is not that of the screen. Calls follow the shape of the dose curve; as a rule, active = well fitted inhibition curve with a large enough effect; inconclusive = small, poorly fitted or top-dose-only effect; inactive = flat fitted curve, though single readings scatter. A potency beside an inconclusive call is a rough fit, not a confirmed value.
Assay: qHTS for Inhibitors of human tyrosyl-DNA phosphodiesterase 1 (TDP1): qHTS in cells in presence of CPT; also: nearly all actives have a fitted effect of over 55% in size
Details: chicken DT40 Tdp1-/-;hTDP1 cells + 20 nM CPT, ATP luminescence, 48 h; activity change, negative = growth inhibition: at 46.2 µM (top of the series)
In short: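 Chicken DT40 Tdp1-/- cells stably complemented with human TDP1 were seeded at 400 cells/well in medium containing 20 nM camptothecin, exposed to pin-transferred compounds, and grown at 37 °C for at least 48 hr. Viability was read as ATP luminescence.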
% is scaled to controls: 0 for no effect and ±100 for the full control effect; potency is read from the fitted curve at half-maximal effect; tags tell the direction and shape of the fitted curve.

| Structure (SMILES) | activity change, negative = growth inhibition | Potency |
| --- | --- | --- |
| CCC1([N+](=O)[O-])COC(c2ccc(OC)cc2)OC1 (centres undefined) | inactive: 16.3% | – |
| COCCOC(=O)N1CCCCC1c1cc(C(=O)Nc2cccc3c2CCCC3)no1 (centres undefined) | – | active: 3.66 µM |
| CCOc1ccc(CCNC(=O)c2ccc(C)c(-n3c(C)nc4cccnc43)c2)cc1OCC | – | inconclusive: 14.6 µM [inhibitor, partial curve] |
| O=c1cc(N2CCC(Cc3ccccc3)CC2)[nH]c(=O)n1C1CCCCC1 | – | inconclusive: 18.4 µM [inhibitor, single point] |
| COc1ccc([C@@H]2[C@@H]3C(=O)N(C(C)(C)C)C(=O)[C@@H]3[C@]3(CC(C)C)C(=O)N(c4cccc(Br)c4)C(=O)N23)cc1 | – | inconclusive: 29.1 µM [inhibitor, single point] |
| COc1ccccc1S(=O)(=O)Cc1ccc(C(=O)N2CCOCC2)o1 | inactive: -1.96% | – |
| CCN(CC)C(=S)SCC(=O)c1ccccc1 | – | inconclusive: 29.1 µM [inhibitor, single point] |
| Cc1ccc2sc(N(CCCN(C)C)C(=O)c3ccc(S(=O)(=O)N(C)Cc4ccccc4)cc3)nc2c1C | – | inconclusive: 29.1 µM [inhibitor, single point] |
| COc1ccc(N(CC(=O)Nc2ccc(C)c(C)c2)C2=NC3CS(=O)(=O)CC3S2)cc1 (centres undefined) | inactive: 12.1% | – |
| CCN(Cc1ccccc1)C(=O)c1cc2ccc3cccnc3c2[nH]1 | – | inconclusive: 16.4 µM [inhibitor, partial curve] |
| NNC(=O)c1nn(-c2ccc(Cl)cc2)cc1O | – | inconclusive: 29.1 µM [inhibitor, single point] |
| Cc1cc(NC(=O)C(C)SCC(=O)Nc2ccccc2C(C)(C)C)no1 (centres undefined) | – | inconclusive: 29.1 µM [inhibitor, single point] |
| Cc1cccc(C(=O)N2N=C(c3ccc(NS(C)(=O)=O)cc3)CC2c2cccs2)c1 (centres undefined) | – | active: 23.1 µM |
| CCOc1ccc(C(=O)Nc2cc(-c3ccccc3)no2)cc1 | inactive: -26.1% | – |
| CCOC(=O)[C@]12CCCC=C1N(Cc1cccc3ccccc13)C(=O)[C@H](CC(=O)N1CCSCC1)C2 | – | inconclusive: 29.1 µM [inhibitor, single point] |
| Cc1cc(Br)ccc1NC(=O)CN1C(=O)c2cccnc2Sc2ccccc21 | inactive: -22.5% | – |
| COc1ccc(N(Cc2cccs2)C(=O)COc2ccc([N+](=O)[O-])cc2)cc1 | – | inconclusive: 29.1 µM [inhibitor, single point] |
| CN1/C(=C\C(=O)COc2ccc3c(c2)OCO3)C(C)(C)c2ccccc21 | – | active: 8.2 µM |
| O=C(Nc1ccc(CN2CCOCC2)cc1)c1ccc(-c2cccc(Cl)c2)o1 | – | inconclusive: 29.1 µM [inhibitor, single point] |
| CCOc1ccc(-c2cc(CCCC(=O)NCc3cccnc3)no2)cc1 | – | active: 23.1 µM |
| Fc1ccccc1CNc1ccc(Cl)cc1 | inactive: -22.3% | – |
| O=C(NCc1ccncc1)[C@@H]1CCCN1C(=O)[C@H]1CCCN1 | inactive: -23.4% | – |
| COc1ccc(-c2nnc(NC(=O)c3cc(Cl)ccc3Cl)o2)cc1 | – | active: 16.4 µM |

| Structure (SMILES) | activity change, negative = growth inhibition | Potency |
| --- | --- | --- |
| Cc1cccc(S(=O)(=O)Nc2ccc(C)c3c2OC(C)(C)C3)c1 | – | inconclusive: 29.1 µM [inhibitor, single point] |
| COC(=O)c1ccc(-c2nc3cc(Cl)c(N)cc3s2)cc1 | inconclusive: -30.7% [inhibitor] | – |
| C#CCOCCOCCOCCNc1nc(N2CCN(C(=O)C(Cc3cc4ccccc4[nH]3)n3cc(C(N)C(C)CC)nn3)CC2)nc(N2CCN(C(=O)C(Cc3cc4ccccc4[nH]3)n3cc(C(N)C(C)CC)nn3)CC2)n1 (centres undefined) | – | active: 16.4 µM |
| CCc1c(C)c(C#N)c2nc3ccccc3n2c1NCc1ccco1 | – | active: 23.1 µM |
| Cc1ccc(Cl)cc1NC(=O)COC(=O)CSc1ccccc1 | inactive: 0.368% | – |
| COc1ccc(CN2CC[C@H]3C=CC[C@@H](C(=O)Nc4ccc(Cl)c(C(F)(F)F)c4)[C@H]3C2=O)cc1OC | – | inconclusive: 22.4 µM [inhibitor, single point] and inconclusive: 20.6 µM [inhibitor, single point] |
| O=C(CSc1nc2scc(-c3ccccc3)c2c(=O)[nH]1)N1CCOCC1 | – | inconclusive: 29.1 µM [inhibitor, single point] |
| Cc1ccc(C)c(N(C(=O)CNC(=O)c2ccco2)C(C(=O)NCC2CCCO2)c2ccccc2)c1 (centres undefined) | inconclusive: -32% [inhibitor] | – |
| CC(C(=O)Nc1ccc(C(=O)O)c(O)c1)N1C(=O)/C(=C\c2ccco2)SC1=S (centres undefined) | – | inconclusive: 14.6 µM [inhibitor, single point] |
| O=C(Cn1cnc2ccccc2c1=O)c1ccc2ccccc2c1 | – | inconclusive: 25.9 µM [inhibitor, single point] |
| CN(CC(=O)Nc1cccc(F)c1)C(=O)c1sccc1-c1ccccc1 | inactive: -9.27% | – |
| CN(C)S(=O)(=O)c1cccc(-c2nn(-c3ccccc3)cc2/C=C2\SC(=S)NC2=O)c1 | – | inconclusive: 18.4 µM [inhibitor, single point] |
| CC(=O)c1ccc(NC(=O)Nc2ncn(Cc3cccc(C)c3)n2)cc1 | inactive: -21.4% | – |
| COc1ccccc1C(=O)C1CCCN(C(=O)c2cccc(Cn3cccn3)c2)C1 (centres undefined) | – | inconclusive: 20.6 µM [inhibitor, single point] |
| O=C(Cn1cncn1)NCc1ccc(Cl)cc1 | inactive: -9.47% | – |
| COc1cccc(CNC(=O)c2c(OC)cc(=O)n3c2CCN(C(=O)c2ccc(C)nc2)CC3)c1 | inactive: 8.19% | – |
| NC(=O)c1ccccc1NC(=O)COc1ccc2c(c1)OCO2 | inactive: 7.59% | – |
| Clc1ccc(-c2cn(-c3ccccc3)c3[n+]2CCS3)cc1 | – | inconclusive: 9.2 µM [inhibitor, partial curve, poor fit] |
| CCn1c(CCCOc2ccc(Cl)cc2Cl)nnc1SCC(=O)Nc1cc(F)ccc1C | – | inconclusive: 29.1 µM [inhibitor, single point] |
| N#Cc1c(NC(=O)CSc2n[nH]c(Cc3ccccc3)n2)oc(-c2ccccc2)c1-c1ccccc1 | – | inconclusive: 11.6 µM [inhibitor, partial curve] |
| Cc1cc(N=Nc2ccc(C)c(N=Nc3cc(C)c(N)cc3N)c2)c(N)cc1N | – | inconclusive: 35.5 µM [inhibitor, single point] and inconclusive: 18.4 µM [inhibitor, single point] |
| N#C/C(=C\c1cccc([N+](=O)[O-])c1)C(=O)NCc1cccnc1 | – | active: 20.6 µM |
| O=C(Nc1ccccc1C(F)(F)F)N1CCN(c2ccc3nnc(-c4ccc(F)cc4)n3n2)CC1 | – | inconclusive: 8.2 µM [inhibitor, partial curve] |

| Structure (SMILES) | activity change, negative = growth inhibition | Potency |
| --- | --- | --- |
| CCC(C)(C)c1ccc(OCC(=O)Nc2ccncc2)cc1 | – | inconclusive: 0.517 µM [inhibitor, single point] |
| CC(C)(C)NCC(O)COc1ccccc1C(=O)CCc1ccccc1 (centres undefined) | – | active: 16.4 µM |
| CCCn1c(N)c(N(CCOC)C(=O)CSc2c(Cl)cccc2Cl)c(=O)[nH]c1=O | inactive: -10.9% | – |
| O=C1c2ccccc2[C@@H]2C[C@@H](O)[C@H](Nc3ccccc3)CCN12 | inactive: 13.1% | – |
| CC1Cc2cc(/C(O)=C3/C(=O)C(=O)N(CCCN4CCOCC4)C3c3ccc(C(C)C)cc3)ccc2O1 (centres undefined) | inactive: -12.7% | – |
| CCOc1ccc(CNC(=O)C2Cc3cc(S(=O)(=O)N4CCCCCC4)ccc3N2C(C)=O)cc1 (centres undefined) | – | inconclusive: 23.1 µM [inhibitor, single point] |
| COc1cc(/C=C2/C(=O)c3cccc([N+](=O)[O-])c3C2=O)c(Br)cc1O | – | active: 6.51 µM |
| CC(C)CCNc1nc(-c2ccco2)c2c(c1C#N)CCCC2 | – | inconclusive: 10.3 µM [inhibitor, partial curve] |
| O=C(COC(=O)C1C2CC3OC(=O)C1C3C2)Nc1ccc(Cl)cc1 (centres undefined) | inactive: -4.53% | – |
| CCOC(=O)N1CCN(C(=O)CCSCCc2ccncc2)CC1 | – | inconclusive: 13 µM [inhibitor, partial curve] |
| CN1CC=C2C(C#N)=C(N)C(C#N)(C#N)C(CCc3ccccc3)C2C1 (centres undefined) | – | inconclusive: 25.9 µM [inhibitor, partial curve] |
| COCCCn1c(=O)/c(=C\c2ccccc2OC(F)F)s/c1=C(/C#N)C(=O)NC(C)C | inactive: -21.1% | – |
| CCOC(=O)c1cccc(N2C(=O)Nc3ccccc3N2O)c1 | inactive: -3.92% | – |
| CC1CCCC(NC(=S)Nc2ccc(SC(F)F)cc2)C1C (centres undefined) | – | inconclusive: 23.1 µM [inhibitor, single point] |
| COc1ccc(N(CC(=O)NCCSC2CCCCC2)S(C)(=O)=O)c(OC)c1 | – | inconclusive: 35.5 µM [inhibitor, single point] |
| N#C/C(=C/c1ccc(Sc2nc3ccccc3[nH]2)o1)c1cccc(F)c1 | – | active: 20.6 µM |
| Clc1ccc(CN2CCC(c3nc4ccc(Cl)cc4[nH]3)CC2)cc1 | – | active: 16.4 µM |
| COc1ccc(-c2cc(C3CCNCC3)[nH]n2)cc1 | – | inconclusive: 29.1 µM [inhibitor, single point] |
| COc1ccc(CN2CCC(N3CC(C)OC(C)C3)CC2)c(OC)c1 (centres undefined) | inactive: 6.93% | – |
| COC(=O)C(C)Sc1nnc2n(-c3cccc(C)c3)c(=O)c3c4c(sc3n12)CCCC4 (centres undefined) | – | inconclusive: 0.517 µM [inhibitor, full curve, poor fit] |
| Cc1ccc(C2CC(c3ccccc3)=NN2C(=O)CSc2nnc(-c3ccc(Cl)cc3)o2)o1 (centres undefined) | – | inconclusive: 18.4 µM [inhibitor, single point] |
| Cc1cccc(Nc2nc(N)c([N+](=O)[O-])c(N3CC(C)OC(C)C3)n2)c1 (centres undefined) | – | inconclusive: 23.1 µM [inhibitor, single point] |
| CC(C)(C)c1ccc(-c2nnc(SCCC#N)n2C2CCCC2)cc1 | – | active: 18.4 µM |
